Reference: the RNAGym collection of RNA variant scans (doi:10.1073/pnas.2313332121)
Variants at the floor of the assay are shown more often than the library holds them.

B1: TPR 5TU (parent)
chain: GGAUCUUCUCGAUCUAACAAAAAAGACAAAUCUGCCACAAAGCUUGAGAGCAUCUUCGGAUGCAGAGGCGGCAGCCUUCGGUGGCGCGAUAGCGCCAACGUUCUCAACUAUGACACGCAAAACGCGUGCUCCGUUGAAUGGAGUUUAUCAUG

Variants of: B1
Assay: polymerase ribozyme fitness, log enrichment relative to wild type (log ratio); higher = more active; in vitro selection for triplet polymerase activity
Method in brief: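 Both subunits of a heterodimeric triplet polymerase ribozyme were given their own mutant library, built by PCR and transcribed. Each library was annealed with a biotinylated primer, the partner subunit and triplets, incubated frozen at −7 °C, and its extended constructs gel-excised, captured on streptavidin beads and amplified by RT-PCR, all in one round done in triplicate. Fitness is the logarithm of genotype enrichment relative to wild-type enrichment, with replicates averaged by inverse-variance weighting. That logarithm is base 2, and Illumina-sequenced genotypes needed ≥10 input reads and ≥1 read per output.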

Variant	polymerase ribozyme fitness (log ratio)
A39C A52G	-2.32
C38G G81A C93G C99G G117A G136U	≤ -4.2
A39C U130G	≤ -4.2
A37G U53C U90G A110U A137C	≤ -4.2
A39C G46A	≤ -4.2
C36U C43U C75A C95A	≤ -4.2
A39G G58U U82C C108A U146A A150C	≤ -4.2
C36U U55A G86U C96G C149G	≤ -4.2
A39U A73C C87A U101G	≤ -4.2
A39C A47U	-2.53
C38G C123A	-0.288
A39G G50C C63U G81C A91C	≤ -4.2
C38A C72U C75A U144G	≤ -4.2
A37C A66G C114U U135A	≤ -4.2
C38U G81A C105A C129G U144A	≤ -4.2
A39C C96G G141C U145C	≤ -4.2
A39G G84A C116U	-1.91
A37G A47G U53G C54U C87G A106U A122U G141A A142C U144C	≤ -4.2
C38U G80C C85U G100U	≤ -4.2
A37G U55G C85G	-3.49
C38U C54G C95A U104C C114A	≤ -4.2
A39G A52C C54G C85U C125U G126U A147C	≤ -4.2
C38U G58U C85U C108A U134A U144C	≤ -4.2
A37G A52C U56A U111G U139C	≤ -4.2

Variant	polymerase ribozyme fitness (log ratio)
C38U C76U C85A A106C	≤ -4.2
C38U U45A C54A A66C C85U G117A A120C	≤ -4.2
A37C G58C A60C G74C C75U A106G U145C	≤ -4.2
A39C C96U A97U A142U G143C	≤ -4.2
A39G G62C C85A G88C C95A C108A A119C A150G	≤ -4.2
A37G C38A G48U	-2.25
C38U C87G C96U	≤ -4.2
A37U U45A G46C C85U C105U U144A	≤ -4.2
A39C G70A U82A C99U C114G U144C	≤ -4.2
C36U A142G	-2.16
A37G A52C U55A C57G G67A C69A G83A	≤ -4.2
C38U C96G A142U U146A	-1.67
C38A U53A A60U C93G C131A G141C	-3.94
A39G C54A A91G G94A	≤ -4.2
C38U U61A G62A C85G G140U	≤ -4.2
C36U G71A G94A U135G	≤ -4.2
C38G G46A A52G A91U G112C U145G	≤ -4.2
C38U A49U U61A C76A C93U G100C A106U A122U C149U	≤ -4.2
C36U U134G U148A	-4.04
A39G U53A C87U A115C	-3.83
A37U A52C C57A C85G A137U A142U	≤ -4.2
A37C U53G U55G C95U U127G G136A	≤ -4.2
C38G G80C C99G C116U	-0.78
C38U C95G U102A	-2.51

Variant	polymerase ribozyme fitness (log ratio)
A39G C93U C118U U134A	≤ -4.2
C36U C51G U55A G67A C93U	≤ -4.2
A39C G94C C96U G136U A138U U144G	≤ -4.2
C38U A41G A52C U82C G84A A89C C96G C103G A106U G136A	≤ -4.2
A39C C93U C103U A110U A150U	≤ -4.2
C38A C87A A107C A121U A138G	≤ -4.2
A37G U56A G88C C99U	≤ -4.2
A37G A64G G80A G88U G143A	≤ -4.2
A37C A49C G59C G83C C95A A122U G143U A150G	≤ -4.2
C38U G58C C96U A98G	0.385
C36U A64C G136A U145C A147C	≤ -4.2
A37C A47U G71U G84U A115U	≤ -4.2
C38U A64C U109G A113G C114U C125U C129G C149G	≤ -4.2
A37C U102G	≤ -4.2
A39G G86C U109C G128U G140C	≤ -4.2
C38A C95A C118A	-1.55
C38A A91G C96G C103A U145G	≤ -4.2
A37C A49G C93U	-2.86
C38U G86A C99G C108A A115U U135A	≤ -4.2
C38U U55A G80A G94C A110U A115U	≤ -4.2
C38U U55G C87A A106G	≤ -4.2
A39C G81U C96U C105U A121U U134C U135C U148C	≤ -4.2
A37C U53A U78A C85A	≤ -4.2
C36U U90G A91C C93U G94U U134A	≤ -4.2

Variant	polymerase ribozyme fitness (log ratio)
A39C G48A C93U C95G C96A A113U C114U A120G G136C U148G	≤ -4.2
A39G C75U C85U A137G	-3.67
A37C A47C G59U A107G G124U	≤ -4.2
A39C U77C C93U	≤ -4.2
A37C G58A G68A U148G	≤ -4.2
C38U C57A C63U C95U A98U C99G	-1.54
C38G C76G U82A	≤ -4.2
A39C G84A C87G G94U C103G A150C	≤ -4.2
C38G A60G C76G G81A G84U U102G C116U G128A	≤ -4.2
A37C A40C C69U C75A G88A G133A U139C A150C	≤ -4.2
C36U G92C C116U C118U U144C	≤ -4.2
A39U A49C C54U C79U A89C G141U U148A	≤ -4.2
A37C A60C C85U G126C U146C	-2.23
C36U U55G A73C G86U G94U A113C	≤ -4.2
A37U C54U C93U	-2.44
A37U U56G G88U C125G	≤ -4.2
A37C A60C C69U C85A U146G	-3.76
A37G U77A C87A C99U G140C A147U	≤ -4.2
A39G G88C A91U G136U	≤ -4.2
C38U C96U G126A G140U A142U	≤ -4.2
A39G C72A C93A A115U G152C	≤ -4.2
C38U G88C G126C A147C	≤ -4.2
C38G A40G G83A	-3.86
A37G G48U G62U C63G C69U G84A C93U C108U G133U	≤ -4.2

Variant	polymerase ribozyme fitness (log ratio)
A39C G67U C118U A138U	≤ -4.2
A37U U61A A98U C123U A137U	≤ -4.2
C36U U53A C57A C63A G71A U82A G86C A98G	≤ -4.2
A39C C87U U101G G117U	-3.2
A39G A73U C87A	≤ -4.2
C38A C93A G143U	-4.12
C38A A73C C75G A120C	≤ -4.2
A37C G86A	-1.34
C38G A40U U55A U56A C87U A89C	-3.99
A37U A39U A41C C85A A113G A120G C125U A137U	≤ -4.2
A37U C38U C76G C93U C96A C118U G143U	≤ -4.2
A39C G68A G80A C118U G128U	≤ -4.2
C38U C63A G94C	-0.694
A39C A89C C103G	≤ -4.2
A37C G70A C85G G88U C99U	≤ -4.2
A39C A40C A41C G42C G46U G59C C87A U90G U127G G152U	≤ -4.2
A39U A64U C87G	≤ -4.2
C36U G62A C72U	-3.23
A39G C57A C87U	-1.73
A37C A64G C76A C95U C99A U101C C123A U130G C132U	≤ -4.2
A37C G48A C54U C95G A97U	≤ -4.2
A37U U135A	-2.34
A37U G68U C118A	≤ -4.2
A39U A40U A91U C95G	≤ -4.2

Variant	polymerase ribozyme fitness (log ratio)
A39G A40G C75G G86A A98G A107G A115U U145A	≤ -4.2
A37C C95G G140C	≤ -4.2
C38U G42U G46A A47U A60C C63U G86A	≤ -4.2
A37U A40C U55A G58A G59A G84C G126A	-4.07
C38U C51U C75U C99G U101C A150C	≤ -4.2
A39G C51U U56A U77A G81C G94A C99G A107G G141U U145A G152U	≤ -4.2
C36U U44G C96G C99G C123U C125G U135C G141A	≤ -4.2
C38G G42C U61G G86U	≤ -4.2
A39G G80C C93U C118U	-3.96
C38U C54A G71A	≤ -4.2
C38A C75G G94A	≤ -4.2
A37U G83C C85A C93G A119G U139G	≤ -4.2
C38U U55C A64U G94A C103A C125U	≤ -4.2
A37U C38U A91G G133U G141A	≤ -4.2
A37C U77G C79U G94C G126U	≤ -4.2
A39G U61G C79A A91U C93U G126A	≤ -4.2
A39C U77A G83A	≤ -4.2
A39C G59A C87A U139G	≤ -4.2
C38G G71A U82G A107U	≤ -4.2
A39G A40G U61A A73G C85U A120U	≤ -4.2
C38G A39C A73G G94A	≤ -4.2
C38U C96G	-1.09
A39C G88C A97G C114G	≤ -4.2
C38U G48U U61A G65A C87U A97U	≤ -4.2

Variant	polymerase ribozyme fitness (log ratio)
C36U C85U G133A U135C	-4.18
A39G G48C G80U A91U G133A G141C	≤ -4.2
A39U A64C C96U C125U	≤ -4.2
C38A A64G C69G C87U U134A U151C	≤ -4.2
C38U C93G C125A	-3.39
A37G C54U C72A C85G	≤ -4.2
C38A U55A C85A	-2.66
C38U G42C U55A C105A C116A G124C U148G	≤ -4.2
A39G G65C C85G	≤ -4.2
A37C U77A A91U	≤ -4.2
A37G G50A C105G A121C G133U G136U	≤ -4.2
A39C C54G C93A	≤ -4.2
A39G C99A	-3.78
A37C A41U G46A C85A	≤ -4.2
A39C A52G C123G	-2.84
A39C U104G U134A G143U	≤ -4.2
A39C U53A G62C U144A	≤ -4.2
C38U U78C C95U	-0.556
A39U A66U G88A C99G G143U	≤ -4.2
A37U A60U G71C G84A C116A G124C U146G	≤ -4.2
C38A G83A A107U C108A	≤ -4.2
A39G G88C A91U G143U	≤ -4.2
C38U C85G U135C	≤ -4.2
